# According to PubChem BioAssay (NCATS):
# The inconclusive results got no clear call from the source; some entries with a clear call stand among them for comparison. For some assays here: No potency is given beside an inconclusive call; the fits are too rough. A structure can be active in one record and inactive in another. The source made the active and inactive calls. Calls follow the shape of the dose curve; as a rule, active = well fitted curve in the direction sought with a large enough effect; inconclusive = small, poorly fitted or top-dose-only effect, or another doubt; inactive = no such curve, though single readings can be large; an effect the other way counts as inactive or inconclusive.
# Assays:
# [1] = NS1 protein of Zika virus - qHTS assay to identify small molecule inhibitors in human HEK 293 cells (AID 1347053); also: nearly all actives have a fitted effect of over 55% in size
# Procedure, shortened: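 TR-FRET signal from two anti-ZIKV NS1 antibodies quantified NS1 in HEK 293 cells 24 h after MR766 infection at MOI = 0.5; compounds were added 1 h before virus. Uninfected cells and infected cells defined the NS1 normalization range.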
# [2] = qHTS of pediatric cancer cell lines to identify multiple opportunities for drug repurposing: Primary screen for U-2 OS cells (AID 1347096); also: nearly all actives have a fitted effect of over 50% in size
# Procedure, shortened: (§1)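 Viability after 48 h compound treatment at 37C, 500-1,000 cells/well, read as ATP luminescence with CellTiter-Glo. Primary screens used 11-point (MIPE, 0.78 nM-46 µM) or 8-point (NPC, 0.59 nM-46 µM) final concentrations; follow-up screens used 11-point dilutions.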
# [3] = qHTS of pediatric cancer cell lines to identify multiple opportunities for drug repurposing: Primary screen for SK-N-SH cells (AID 1347098); also: nearly all actives have a fitted effect of over 65% in size
# Procedure, shortened: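 Cells (500-1,000/well) rested 5 h, then received compounds for 48 h; metabolically active cells were measured by CellTiter-Glo luminescence. Final concentrations spanned up to 46 µM (MIPE, 11-point) or 0.59 nM-46 µM (NPC, 8-point) in primary screens, 11-point in follow-ups.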
# [4] = qHTS of pediatric cancer cell lines to identify multiple opportunities for drug repurposing: Primary screen for Rh30 cells (AID 1347107); also: nearly all actives have a fitted effect of over 75% in size
# Procedure, shortened: as §1
# [5] = Quantitative High-Throughput drug screen in 47 multiple myeloma cell lines against the NCATS MIPE library collection: KMS27_JCRB cell viability assay (AID 1918970); conditions: KMS27 myeloma cells, CellTiter-Glo ATP viability, 48 h; viability (% of DMSO): at 45.8 µM (top of the series); also: nearly all actives have a fitted effect of over 30% in size
# Procedure, shortened: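 CellTiter-Glo luminescence after 48 h drug exposure at 37 °C; 500 cells/well, 1536-well format, pin-tool compound addition; DMSO = 100%, media-only = 0% viability.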
# [6] = Quantitative High-Throughput drug screen in 47 multiple myeloma cell lines against the NCATS MIPE library collection: OCIMY5_PLB cell viability assay (AID 1918988); also: nearly all actives have a fitted effect of over 65% in size
# Procedure, shortened: (§2)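 Cells were exposed to library compounds for 48 hours, after which ATP was measured by CellTiter-Glo. Signal was taken as median relative luminescence units.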
# [7] = test system: MCC-26; experiment: qHTS assay to identify novel small-molecules to repurpose for Merkel cell carcinoma treatment (AID 1296009); conditions: MCC and control cell lines, CellTiter-Glo viability, 72 h; activity change, negative = cytotoxicity: at 46 µM (top of the series); also: nearly all actives have a fitted effect of over 60% in size
# Procedure, shortened: (§3)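 Dose-response viability screen; 72 hr exposure at 37 degree celsius; CellTiter-Glo added, 10 min room temperature, luminescence read; RLUs scaled between no-cell and DMSO wells.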
# [8] = test system: MKL-1; experiment: as above; conditions: MCC and control cell lines, CellTiter-Glo viability, 72 h; activity change, negative = cytotoxicity: at 46 µM (top of the series)
# Procedure, shortened: as §3
# [9] = biological target: Phospholipid hydroperoxide glutathione peroxidase GPX4 (Homo sapiens) (UniProt P36969); experiment: Primary qHTS Assay for Inhibitors of Recombinant Selenoprotein Glutathione Peroxidase 4 (GPX4) (AID 1845192); also: nearly all actives have a fitted effect of over 65% in size
# Procedure, shortened: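 Steps: GPX4 plus compound, 30 min RT; add GR/GSH/NADPH master mix; start with cumene hydroperoxide; read 340/450 nm fluorescence at 0 and 15 min. Finals were 200 nM GPX4, 1 mM GSH, 0.5 mM CHP, 0.5 mM NADPH, 100 nM GR.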
# [10] = qHTS of pediatric cancer cell lines to identify multiple opportunities for drug repurposing: Primary screen for TC32 cells (AID 1347089); also: nearly all actives have a fitted effect of over 60% in size
# Procedure, shortened: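 In the primary qHTS, MIPE compounds were tested at 11 concentrations (0.78 nM to 46 µM) and NPC compounds at 8 (0.59 nM to 46 µM) on TC32 cells for 48 h. CellTiter-Glo luminescence gave viability.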
# [11] = qHTS of pediatric cancer cell lines to identify multiple opportunities for drug repurposing: Primary screen for NB-EBc1 cells (AID 1347095)
# Procedure, shortened: (§4)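 Viability was measured as metabolically active cells after 48 hours of treatment, read by CellTiter-Glo luminescence. Compounds were tested at multiple final concentrations, giving concentration-response curves.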
# [12] = Quantitative High-Throughput drug screen in 47 multiple myeloma cell lines against the NCATS MIPE library collection: EJM_DSMZ cell viability assay (AID 1918926; also: nearly all actives have a fitted effect of over 30% in size)
# Procedure, shortened: (§5)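 Steps: seed 500 cells per well; pin-transfer MIPE 4.0 library; incubate 48 h at 37C, 5% CO2, humidified; add CellTiter-Glo, 5 min room temperature; read luminescence.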
# [13] = Quantitative High-Throughput drug screen in 47 multiple myeloma cell lines against the NCATS MIPE library collection: KMS12PE_JCRB cell viability assay (AID 1918972); also: nearly all actives have a fitted effect of over 30% in size
# Procedure, shortened: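 Viability readout: CellTiter-Glo luminescence following 5 min room-temperature incubation with reagent. Prior exposure: 48 h, 37C, humidified 5% CO2, 500 cells per well.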
# [14] = Quantitative High-Throughput drug screen in 47 multiple myeloma cell lines against the NCATS MIPE library collection: KMS20_JCRB cell viability assay (AID 1918973); conditions: CellTiter-Glo ATP, 48 h; viability (% of DMSO): at 45.8 µM (top of the series); also: nearly all actives have a fitted effect of over 45% in size
# Procedure, shortened: as §5
# [15] = Quantitative High-Throughput drug screen in 47 multiple myeloma cell lines against the NCATS MIPE library collection: UTMC2_PLB cell viability assay (AID 1919868); conditions: CellTiter-Glo ATP luminescence, 48 h; series mostly up to 45.8 µM; also: nearly all actives have a fitted effect of over 55% in size
# Procedure, shortened: as §2
# [16] = Quantitative High-Throughput drug screen in 47 multiple myeloma cell lines against the NCATS MIPE library collection: KHM11_PLB cell viability assay (AID 1918962); conditions: KHM11 myeloma cell viability, CellTiter-Glo ATP luminescence, 48 h; series mostly up to 45.8 µM; also: nearly all actives have a fitted effect of over 35% in size
# Procedure, shortened: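 We plated 500 myeloma cells per well, pinned in MIPE 4.0 compounds, and incubated for 48 hours at 37C. ATP was then quantified with CellTiter-Glo, with DMSO and media-only wells defining 100% and 0%.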
# [17] = Quantitative High-Throughput drug screen in 47 multiple myeloma cell lines against the NCATS MIPE library collection: OCIMY1_PLB cell viability assay (AID 1918979); also: nearly all actives have a fitted effect of over 35% in size
# Procedure, shortened: as §2
# [18] = qHTS of pediatric cancer cell lines to identify multiple opportunities for drug repurposing: Primary screen for MG 63 (6-TG R) cells (AID 1347105); conditions: MG 63 (6-TG R) viability, CellTiter-Glo, 48 h; activity change, negative = cytotoxic: at 46 µM (top of the series); also: nearly all actives have a fitted effect of over 50% in size
# Procedure, shortened: as §4
# [19] = Quantitative High-Throughput drug screen in 47 multiple myeloma cell lines against the NCATS MIPE library collection: ARD_JJKsccE7 cell viability assay (AID 1918929); conditions: ARD myeloma cell line viability, CellTiter-Glo, 48 h; viability: at 45.8 µM (top of the series)
# Procedure, shortened: as §5
# Potency is read from the fitted curve at half-maximal effect; tags tell the direction and shape of the fitted curve.
# UniProt P36969, sequence (P36969 whole entry, looked up): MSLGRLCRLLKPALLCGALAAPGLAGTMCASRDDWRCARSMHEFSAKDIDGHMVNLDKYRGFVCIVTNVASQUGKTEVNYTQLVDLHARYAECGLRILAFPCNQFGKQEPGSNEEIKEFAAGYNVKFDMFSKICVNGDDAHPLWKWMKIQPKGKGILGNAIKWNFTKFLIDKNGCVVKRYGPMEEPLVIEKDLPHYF
smiles,measurement,setting,value
C=CCNC1=C2C[C@@H](C)C[C@H](OC)[C@@H](O)[C@@H](C)C=C(C)[C@H](OC(N)=O)[C@@H](OC)C=CC=C(C)C(=O)NC(=CC1=O)C2=O,Potency,[1],"inconclusive [inhibitor, single point]"
same,Potency,[2],"inconclusive [cytotoxic, full curve, poor fit]"
same,Potency,[3],active: 2.41 µM
same,Potency,[4],active: 13.2 µM
same,Potency,[5],active: 0.105 µM
same,Potency,[6],active: 0.526 µM
same,Potency,[7],"inconclusive [inhibitor, full curve]"
same,Potency,[8],"inconclusive [inhibitor, full curve]"
CCCCCCCCCCCCCCNCCO,Potency,[8],"inconclusive [inhibitor, single point]"
CC(C)[C@@H](CS(=O)(=O)C(C)C)N1C(=O)[C@@](C)(CC(=O)O)C[C@H](c2cccc(Cl)c2)[C@H]1c1ccc(Cl)cc1,Potency,[9],"inconclusive [inhibitor, single point]"
C#CC[C@H](c1nc2cc(Cl)ccc2c(=O)n1Nc1ccccc1)N(CCCN)C(=O)c1cccc(Cl)c1F,Potency,[9],"inconclusive [inhibitor, single point]"
CCN1CCN(Cc2ccc(-c3cc4c(NC(C)c5ccccc5)ncnc4[nH]3)cc2)CC1 (centres undefined),Potency,[9],active: 14.3 µM
COc1cc(C(=O)N2CCC(N3CCN(C)CC3)CC2)ccc1Nc1ncc2c(n1)N(C)c1ccccc1C(=O)N2C,Potency,[1],"inconclusive [inhibitor, single point]"
same,Potency,[10],"inconclusive [cytotoxic, partial curve]"
same,Potency,[11],active: 16.6 µM
same,Potency,[3],active: 21.5 µM
same,Potency,[12],"inconclusive [cytotoxic, partial curve]"
same,Potency,[5],"inconclusive [cytotoxic, full curve, poor fit]"
same,Potency,[13],active: 1.66 µM
same,Potency,[14],active: 13.2 µM
same,Potency,[6],active: 2.09 µM
same,Potency,[15],"inconclusive [cytotoxic, full curve, poor fit]"
same,Potency,[7],"inconclusive [inhibitor, partial curve]"
same,Potency,[8],"inconclusive [inhibitor, single point]"
CCn1cc(-c2ccnc3[nH]c(-c4cccc(CN(C)C)c4)cc23)c(-c2ccc(NC(=O)N(C)C)cc2)n1,Potency,[1],"inconclusive [inhibitor, single point]"
same,Potency,[3],active: 3.04 µM
same,Potency,[12],"inconclusive [cytotoxic, partial curve]"
same,Potency,[16],active: 3.32 µM
same,Potency,[14],active: 4.18 µM
same,Potency,[17],"inconclusive [cytotoxic, partial curve]"
same,Potency,[6],active: 4.18 µM
same,Potency,[15],active: 0.743 µM
Cc1cc(C)c(-c2csc(NC(=O)c3ccccc3)n2)c(C)c1,Potency,[9],inactive
Cc1cc(CN2CCN(c3c(Br)cnc4nc(-c5ccc(N6CCN(C)CC6)cc5)[nH]c34)CC2)no1,Potency,[1],"inconclusive [inhibitor, single point]"
same,Potency,[10],"inconclusive [cytotoxic, full curve]"
same,Potency,[18],active: 18.7 µM
same,Potency,[4],"inconclusive [cytotoxic, partial curve]"
same,Potency,[9],active: 14.3 µM
same,Potency,[19],"inconclusive [rising, full curve, poor fit]"
same,Potency,[16],active: 5.26 µM
same,Potency,[13],"inconclusive [cytotoxic, full curve, poor fit]"
same,Potency,[14],active: 2.35 µM
same,Potency,[15],active: 10.5 µM
same,Potency,[8],active: 3.32 µM
